From the supplement of paper PMC10369915
The other results are listed elsewhere or left out. No stated cut-off is given here; in the data, active = 3.2 or more and inactive = the rest. The signal is at background level for most entries.

Tests used:
Assay in all cases: enrichment score (SH2-bound / input frequency) (ratio); bacterial display of known human phosphotyrosine sites (pTyr-Var adds point mutants) read by sequencing; higher = stronger binding; tyrosines were phosphorylated by kinases first
Details in all cases: peptide library: Human pTyr
SHP2 C-SH2 domain E139D = target: SHP2 C-SH2 domain E139D
[1] = target: SHP2 C-SH2 domain wild-type
SHP2 N-SH2 domain L43F = target: SHP2 N-SH2 domain L43F
SHP2 N-SH2 domain T42A = target: SHP2 N-SH2 domain T42A
SHP2 N-SH2 domain T52S = target: SHP2 N-SH2 domain T52S
[2] = target: SHP2 N-SH2 domain wild-type

Measured: enrichment score
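Further: displayed peptides selected on beads carrying the immobilized SH2 domain, with library peptides lacking any tyrosine serving as negative controls.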

EKIWMTGYEDARHAP [SPRE2_HUMAN_228_YA]
inactive: SHP2 C-SH2 domain E139D 0.691 | [1] 0.618 | SHP2 N-SH2 domain L43F 0.63 | SHP2 N-SH2 domain T42A 0.675 | SHP2 N-SH2 domain T52S 0.603 | [2] 0.576

CRTSGSVYITLKKYD [SRP14_HUMAN_27]
inactive: SHP2 C-SH2 domain E139D 1.73 | [1] 1.36 | SHP2 N-SH2 domain L43F 1.43 | SHP2 N-SH2 domain T42A 1.25 | SHP2 N-SH2 domain T52S 1.9 | [2] 2.27

EEEKEETYDDIDGFD [SKAP1_HUMAN_232]
inactive: SHP2 C-SH2 domain E139D 1.24 | [1] 1.02 | SHP2 N-SH2 domain L43F 1.06 | SHP2 N-SH2 domain T42A 0.958 | SHP2 N-SH2 domain T52S 1.06 | [2] 1.42

EDPPQEEYQEYEPEA [SNCB_HUMAN_127]
inactive: SHP2 C-SH2 domain E139D 1.39 | [1] 1.29 | SHP2 N-SH2 domain L43F 1.39 | SHP2 N-SH2 domain T42A 1.16 | SHP2 N-SH2 domain T52S 1.38 | [2] 1.41

TEIINPNYMGVGPFG [SHIP1_HUMAN_915]
inactive: SHP2 C-SH2 domain E139D 0.513 | [1] 0.443 | SHP2 N-SH2 domain L43F 0.541 | SHP2 N-SH2 domain T42A 0.637 | SHP2 N-SH2 domain T52S 0.461 | [2] 0.485

KTLVMAIYDFDRFSK [SYT2_HUMAN_227]
active: [2] 3.3
inactive: SHP2 C-SH2 domain E139D 2.76 | [1] 2.42 | SHP2 N-SH2 domain L43F 2.58 | SHP2 N-SH2 domain T42A 2.42 | SHP2 N-SH2 domain T52S 3.15

DGPRSPSYGRSRSRS [SRSF1_HUMAN_202]
inactive: SHP2 C-SH2 domain E139D 0.737 | [1] 0.829 | SHP2 N-SH2 domain L43F 0.841 | SHP2 N-SH2 domain T42A 0.64 | SHP2 N-SH2 domain T52S 0.85 | [2] 0.507

EPEEDLEYFECSNVP [TACC1_HUMAN_533]
inactive: SHP2 C-SH2 domain E139D 1.48 | [1] 1.46 | SHP2 N-SH2 domain L43F 1.49 | SHP2 N-SH2 domain T42A 1.06 | SHP2 N-SH2 domain T52S 1.94 | [2] 1.66

AREKLALYVYEYLLH [SSBP3_HUMAN_23]
inactive: SHP2 C-SH2 domain E139D 2.57 | [1] 2.65 | SHP2 N-SH2 domain L43F 2.89 | SHP2 N-SH2 domain T42A 2.5 | SHP2 N-SH2 domain T52S 3.01
active: [2] 3.49

DSLEHNAYNSIPGKE [SHC2_HUMAN_339_YA]
inactive: SHP2 C-SH2 domain E139D 0.658 | [1] 0.537 | SHP2 N-SH2 domain L43F 0.602 | SHP2 N-SH2 domain T42A 0.667 | SHP2 N-SH2 domain T52S 0.695 | [2] 0.629

YGAGRGNYDAFRGQG [SRRT_HUMAN_836]
inactive: SHP2 C-SH2 domain E139D 0.886 | [1] 0.707 | SHP2 N-SH2 domain L43F 0.76 | SHP2 N-SH2 domain T42A 0.944 | SHP2 N-SH2 domain T52S 0.936 | [2] 0.848

EDPMASMYAKLQNQP [STAM1_HUMAN_384_YA]
inactive: SHP2 C-SH2 domain E139D 1.58 | SHP2 N-SH2 domain L43F 0.676 | SHP2 N-SH2 domain T42A 0.836 | SHP2 N-SH2 domain T52S 0.634 | [2] 0.589
active: [1] 4.14

KGKFGNVYLAREKQS [AURKA_HUMAN_148]
active: [2] 4.15
inactive: SHP2 C-SH2 domain E139D 2.92 | [1] 2.96 | SHP2 N-SH2 domain L43F 2.53 | SHP2 N-SH2 domain T42A 2.44 | SHP2 N-SH2 domain T52S 3.12

VLEALELYNKLVNEA [STAM2_HUMAN_361]
inactive: SHP2 C-SH2 domain E139D 0.838 | [1] 0.698 | SHP2 N-SH2 domain L43F 0.8 | SHP2 N-SH2 domain T42A 0.594 | SHP2 N-SH2 domain T52S 0.607 | [2] 0.795

YTTQLDDYLGGSPVQ [AVIL_HUMAN_85]
inactive: SHP2 C-SH2 domain E139D 0.592 | [1] 0.591 | SHP2 N-SH2 domain L43F 0.61 | SHP2 N-SH2 domain T42A 0.425 | SHP2 N-SH2 domain T52S 0.38 | [2] 0.642

DEARNVFYELEDVRD [SRCN1_HUMAN_113]
inactive: SHP2 C-SH2 domain E139D 1.15 | [1] 1.1 | SHP2 N-SH2 domain L43F 1.08 | SHP2 N-SH2 domain T42A 1.09 | SHP2 N-SH2 domain T52S 1.13 | [2] 1.17

DIPGPGFYNVIHQSP [STPG1_HUMAN_72]
inactive: SHP2 C-SH2 domain E139D 0.698 | [1] 0.64 | SHP2 N-SH2 domain L43F 0.838 | SHP2 N-SH2 domain T42A 0.788 | SHP2 N-SH2 domain T52S 0.78 | [2] 0.8

EKIWMTGYEDYRHAP [SPRE2_HUMAN_228]
inactive: SHP2 C-SH2 domain E139D 0.882 | [1] 0.774 | SHP2 N-SH2 domain L43F 0.687 | SHP2 N-SH2 domain T42A 0.722 | SHP2 N-SH2 domain T52S 0.731 | [2] 0.734

KDEVFSKYATPVLAK [STA5A_HUMAN_682_YA]
inactive: SHP2 C-SH2 domain E139D 1.32 | SHP2 N-SH2 domain L43F 1.16 | SHP2 N-SH2 domain T42A 0.861 | SHP2 N-SH2 domain T52S 0.804 | [2] 0.977
active: [1] 3.72

DPGSAAPYLKTKFIC [STAT3_HUMAN_705]
inactive: SHP2 C-SH2 domain E139D 1.48 | [1] 1.96 | SHP2 N-SH2 domain L43F 1.03 | SHP2 N-SH2 domain T42A 1.33 | SHP2 N-SH2 domain T52S 1.4 | [2] 1.78

ERSTSAGYSRSRSGS [SRSF9_HUMAN_192_YA]
inactive: SHP2 C-SH2 domain E139D 0.961 | [1] 1.19 | SHP2 N-SH2 domain L43F 0.951 | SHP2 N-SH2 domain T42A 0.827 | SHP2 N-SH2 domain T52S 0.927 | [2] 1.16

SETPGYIYSSNFHAV [SRBS1_HUMAN_654]
inactive: SHP2 C-SH2 domain E139D 1.33 | [1] 1.3 | SHP2 N-SH2 domain L43F 1.12 | SHP2 N-SH2 domain T42A 0.955 | SHP2 N-SH2 domain T52S 1.34 | [2] 1.07

AGVEDPEYAVTQLAQ [STML2_HUMAN_124_YA]
inactive: SHP2 C-SH2 domain E139D 0.742 | [1] 0.528 | SHP2 N-SH2 domain L43F 0.594 | SHP2 N-SH2 domain T42A 0.904 | SHP2 N-SH2 domain T52S 0.571 | [2] 0.71

DAESKTSYGWIEIVG [SYG_HUMAN_453]
inactive: SHP2 C-SH2 domain E139D 1.17 | [1] 1.25 | SHP2 N-SH2 domain L43F 1.22 | SHP2 N-SH2 domain T42A 1.19 | SHP2 N-SH2 domain T52S 1.32 | [2] 1.54

AKPDSSFYKGLDLNG [B3AT_HUMAN_359]
inactive: SHP2 C-SH2 domain E139D 0.85 | [1] 0.738 | SHP2 N-SH2 domain L43F 0.935 | SHP2 N-SH2 domain T42A 0.957 | SHP2 N-SH2 domain T52S 1.08 | [2] 0.732

EMPSEEGYQDAEPEA [SNCA_HUMAN_133_YA]
inactive: SHP2 C-SH2 domain E139D 1.25 | [1] 1.1 | SHP2 N-SH2 domain L43F 1.12 | SHP2 N-SH2 domain T42A 0.964 | SHP2 N-SH2 domain T52S 1.01 | [2] 1.24

IATDPGLYQMLPRFS [TAF6_HUMAN_253]
inactive: SHP2 C-SH2 domain E139D 0.729 | [1] 0.569 | SHP2 N-SH2 domain L43F 0.773 | SHP2 N-SH2 domain T42A 0.68 | SHP2 N-SH2 domain T52S 0.614 | [2] 0.599

GGGGMSEYIRVTEDE [TARDBP_HUMAN_4]
inactive: SHP2 C-SH2 domain E139D 0.935 | [1] 0.593 | SHP2 N-SH2 domain L43F 0.642 | SHP2 N-SH2 domain T42A 0.738 | SHP2 N-SH2 domain T52S 0.738 | [2] 0.676

MQQCDSPYVVKAAGS [STK3_HUMAN_81_YA]
inactive: SHP2 C-SH2 domain E139D 1.86 | [1] 1.42 | SHP2 N-SH2 domain L43F 1 | SHP2 N-SH2 domain T42A 0.923 | SHP2 N-SH2 domain T52S 1.06 | [2] 1.32

AKNLDKEYLPIGGLA [AATM_HUMAN_96]
inactive: SHP2 C-SH2 domain E139D 0.682 | [1] 0.677 | SHP2 N-SH2 domain L43F 0.704 | SHP2 N-SH2 domain T42A 0.965 | SHP2 N-SH2 domain T52S 0.924 | [2] 0.775

EEPVNTVYSEVQFAD [SLAF5_HUMAN_316]
active: [1] 4.29 | SHP2 N-SH2 domain T42A 3.22
inactive: SHP2 C-SH2 domain E139D 2.14 | SHP2 N-SH2 domain L43F 2.55 | SHP2 N-SH2 domain T52S 1.99 | [2] 1.15

DGPKGTGYIKTELIS [STAT1_HUMAN_701]
inactive: SHP2 C-SH2 domain E139D 0.775 | [1] 0.73 | SHP2 N-SH2 domain L43F 0.913 | SHP2 N-SH2 domain T42A 0.806 | SHP2 N-SH2 domain T52S 0.825 | [2] 0.849

ESARNLEYVSVSPTN [SLAF6_HUMAN_274]
inactive: SHP2 C-SH2 domain E139D 1.02 | [1] 0.534 | SHP2 N-SH2 domain L43F 0.671 | SHP2 N-SH2 domain T42A 0.724 | SHP2 N-SH2 domain T52S 0.755 | [2] 0.458

NSFNNPAYYVLEGVP [SHIP2_HUMAN_986]
inactive: SHP2 C-SH2 domain E139D 0.891 | [1] 0.696 | SHP2 N-SH2 domain L43F 0.727 | SHP2 N-SH2 domain T42A 0.494 | SHP2 N-SH2 domain T52S 0.596 | [2] 0.577

GDGSDHPYYNSIPSK [SHC3_HUMAN_341]
inactive: SHP2 C-SH2 domain E139D 0.829 | [1] 0.644 | SHP2 N-SH2 domain L43F 0.564 | SHP2 N-SH2 domain T42A 0.555 | SHP2 N-SH2 domain T52S 0.775 | [2] 0.666

STPPGESYFGVSSLQ [SRRM2_HUMAN_1049]
inactive: SHP2 C-SH2 domain E139D 0.696 | [1] 0.538 | SHP2 N-SH2 domain L43F 0.667 | SHP2 N-SH2 domain T42A 0.551 | SHP2 N-SH2 domain T52S 0.619 | [2] 0.579
